IC50 is the fitted dose that halves viability relative to control wells, and lower means more sensitive; fits outside the tested doses are given as limits. For AUC the same curve is integrated over the 256-fold range of doses and scaled to a fraction; values near 1 show little effect. For part of these data: Any top dose called inferred was derived from the fitted curves, not read from the paper.
Key:
Assay in all cases: Viability of human cancer cell lines after 72 h of drug (GDSC screen)
Midostaurin = compound: CO[C@@H]1[C@H](N(C)C(=O)c2ccccc2)C[C@H]2O[C@]1(C)n1c3ccccc3c3c4c(c5c6ccccc6n2c5c31)C(=O)NC4 [Midostaurin]; conditions: top dose 0.512 µM; top dose inferred
Experimental: (§1)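 Human cancer cell lines in 384-well plates, medium with 10% serum, drug for 72 h over a 256-fold dose range (nine 2-fold or five 4-fold steps up to the top dose). Adherent lines were fixed and stained with the nucleic acid dye Syto60, suspension lines read with resazurin; signal relative to control wells, capped at 0 and 100%. One two-parameter sigmoid per drug and line, fitted in a mixed model over all curves with the slope shared within a line.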

Mitomycin C = compound: CO[C@@]12[C@H](COC(N)=O)C3=C(C(=O)C(C)=C(N)C3=O)N1C[C@@H]1N[C@@H]12 [Mitomycin C]; conditions: top dose 16 µM
Experimental: as §1

NVP-BHG712 = compound: Cc1ccc(C(=O)Nc2cccc(C(F)(F)F)c2)cc1Nc1nc(-c2cccnc2)nc2c1cnn2C [NVP-BHG712]; conditions: top dose 10.24 µM; top dose inferred
Experimental: as §1

IOX2 = compound: O=C(O)CNC(=O)c1c(O)c2ccccc2n(Cc2ccccc2)c1=O [IOX2]; conditions: top dose 0.1 µM; top dose inferred
Experimental: as §1

Bosutinib = compound: COc1cc(Nc2c(C#N)cnc3cc(OCCCN4CCN(C)CC4)c(OC)cc23)c(Cl)cc1Cl [Bosutinib]; conditions: top dose 2 µM
Experimental: as §1

Cell Line	AUC (Midostaurin)	IC50 (Midostaurin) [nM]	AUC (Mitomycin C)	IC50 (Mitomycin C) [nM]	AUC (NVP-BHG712)	IC50 (NVP-BHG712) [nM]	AUC (IOX2)	IC50 (IOX2) [nM]	AUC (Bosutinib)	IC50 (Bosutinib) [nM]
BPH-1 (prostate, adherent)	0.863	> 512	0.184	99.5	0.953	> 10200	0.98	> 100		
CAL-54 (kidney, adherent)	0.781	245	0.565	1540	0.874	> 10200	0.983	> 100		
CAMA-1 (breast, adherent)	0.96	> 512	0.406	517	0.963	> 10200	0.958	> 100		
COLO-792 (melanoma, adherent)	0.813	272	0.574	1590	0.988	> 10200	0.978	> 100		
COR-L105 (lung adenocarcinoma, adherent)	0.809	341	0.571	1630	0.749	3980	0.979	> 100		
ChaGo-K-1 (non-small cell lung carcinoma, adherent)	0.93	> 512	0.554	1440	0.944	> 10200	0.981	> 100		
GAMG (glioma, adherent)	0.855	440	0.352	381	0.814	5900	0.984	> 100		
GCT (soft tissue, adherent)	0.903	> 512	0.732	4330	0.989	> 10200	0.977	> 100		
GP5d (large intestine, adherent)	0.926	> 512	0.154	102	0.92	> 10200	0.988	> 100		
H290 (mesothelioma, adherent)	0.893	> 512	0.315	321			0.988	> 100	0.813	969
H2591 (mesothelioma, adherent)	0.938	> 512	0.547	1390	0.885	> 10200	0.98	> 100		
H2803 (mesothelioma, adherent)	0.819	354	0.533	1250	0.946	> 10200	0.933	> 100		
H2804 (mesothelioma, adherent)	0.888	> 512	0.163	81.4	0.965	> 10200	0.952	> 100		
H2818 (mesothelioma, adherent)	0.731	149	0.823	9770	0.989	> 10200	0.984	> 100		
HCE-4 (oesophagus, adherent)	0.868	358	0.152	107	0.992	> 10200	0.991	> 100		
HLE (liver, adherent)	0.829	295	0.422	621	0.949	> 10200	0.984	> 100		
HO-1-N-1 (head and neck, adherent)	0.941	> 512	0.356	414	0.984	> 10200	0.987	> 100		
HPAC (pancreas, adherent)	0.863	> 512	0.412	519	0.789	6710	0.976	> 100		
HPAF-II (pancreas, adherent)	0.978	> 512	0.527	1210	0.836	10000	0.978	> 100		
HTC-C3 (thyroid, adherent)	0.906	> 512	0.73	4930	0.831	7610	0.978	> 100		
Hs940-T (melanoma, adherent)	0.459	24.1	0.35	351	0.984	> 10200	0.973	> 100		
IM-95 (stomach, adherent)	0.831	355	0.356	388	0.817	6200	0.984	> 100		
J82 (bladder, adherent)	0.951	> 512	0.038	< 62.5	0.988	> 10200	0.987	> 100		
JHU-029 (head and neck, adherent)	0.824	402	0.334	307			0.977	> 100	0.658	382
KOSC-2 (head and neck, adherent)	0.933	> 512	0.555	1430	0.982	> 10200	0.977	> 100		
KYSE-180 (oesophagus, adherent)	0.892	> 512	0.24	185	0.891	> 10200	0.987	> 100		
KYSE-270 (oesophagus, adherent)	0.779	178	0.171	124	0.924	> 10200	0.99	> 100		
LU-99A (large cell lung carcinoma, adherent)	0.852	388	0.272	226	0.919	> 10200	0.986	> 100		
MDA-MB-157 (breast, adherent)	0.803	263	0.627	2250	0.987	> 10200	0.965	> 100		
MFE-319 (endometrium, adherent)	0.918	> 512	0.45	733	0.945	> 10200	0.976	> 100		
